Laboratory results as given in the supplement of paper PMC4967469.
The IC50 comes from the fitted curve, where viability falls to half of the control; a limit (>, <) means that the fit lies beyond the doses tested. AUC, from the same fit, is the share of area under the viability curve across the 256-fold dose range; values near 1 show little effect. For some assays here: The top dose, if marked as inferred, comes from the curve model; the source does not state it. For some assays here: Where an entry number is given, a second screen of the drug exists; the two often differ.

How the values were obtained:
Experiment in all cases: Viability of human cancer cell lines after 72 h of drug (GDSC screen)
[1] = compound: Cc1ccc(Nc2nccc(N(C)c3ccc4c(C)n(C)nc4c3)n2)cc1S(N)(=O)=O [Pazopanib]; details: top dose 8 µM
Protocol: (§1)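 Human cancer cell lines in 384-well plates, medium with 10% serum, drug for 72 h over a 256-fold dose range (nine 2-fold or five 4-fold steps up to the top dose). Adherent lines were fixed and stained with the nucleic acid dye Syto60, suspension lines read with resazurin; signal relative to control wells, capped at 0 and 100%. One two-parameter sigmoid per drug and line, fitted in a mixed model over all curves with the slope shared within a line.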

[2] = compound: CC(C)[C@H](C(=O)Nc1ccc(C(=O)NO)cc1)c1ccccc1 [AR-42]; details: top dose 5.12 µM; top dose inferred
Protocol: as §1

[3] = compound: CS(=O)(=O)N1CCN(Cc2cc3nc(-c4cccc5[nH]ncc45)nc(N4CCOCC4)c3s2)CC1 [GDC0941]; details: top dose 4 µM; screen: GDSC drug entry 1527; top dose inferred
Protocol: as §1

Cell Line | AUC [1] | IC50 [1] | AUC [2] | IC50 [2] | AUC [3] | IC50 [3]
HLE (liver, adherent) | 0.7 | 1760 nM | 0.677 | 965 nM | 0.901 | > 4000 nM
786-0 (kidney, adherent) | 0.903 | > 8000 nM | 0.555 | 445 nM | 0.91 | > 4000 nM
PC-3 (prostate, adherent) | 0.972 | > 8000 nM | 0.567 | 509 nM | – | –
A673 (rhabdomyosarcoma, adherent) | 0.99 | > 8000 nM | 0.65 | 793 nM | 0.645 | 603 nM
SW900 (lung squamous cell carcinoma, adherent) | 0.972 | > 8000 nM | 0.636 | 811 nM | 0.873 | > 4000 nM
KP-4 (pancreas, adherent) | 0.974 | > 8000 nM | 0.583 | 536 nM | 0.823 | 2240 nM
COR-L303 (small cell lung carcinoma, suspension) | – | – | 0.228 | 53.7 nM | – | –
MDA-MB-157 (breast, adherent) | 0.947 | > 8000 nM | 0.686 | 1070 nM | 0.918 | > 4000 nM
TCCSUP (bladder, adherent) | 0.968 | > 8000 nM | 0.668 | 1010 nM | 0.734 | 1290 nM
NCI-H522 (lung adenocarcinoma, adherent) | 0.866 | > 8000 nM | 0.389 | 149 nM | – | –
Caov-3 (ovary, adherent) | 0.991 | > 8000 nM | 0.829 | 2680 nM | – | –
SK-LU-1 (lung adenocarcinoma, adherent) | 0.768 | 3820 nM | 0.766 | 2390 nM | 0.765 | 1860 nM
NCI-H196 (small cell lung carcinoma, adherent) | 0.985 | > 8000 nM | 0.417 | 188 nM | 0.896 | > 4000 nM
SW1463 (large intestine, adherent) | 0.966 | > 8000 nM | 0.719 | 2130 nM | 0.861 | > 4000 nM
SW1116 (large intestine, adherent) | – | – | 0.503 | 327 nM | 0.898 | > 4000 nM
SW1088 (glioma, adherent) | 0.831 | 7330 nM | 0.853 | > 5120 nM | 0.63 | 638 nM
J82 (bladder, adherent) | 0.725 | 2180 nM | 0.895 | > 5120 nM | 0.755 | 1350 nM
SK-CO-1 (large intestine, adherent) | 0.97 | > 8000 nM | 0.617 | 658 nM | 0.797 | 1760 nM

Cell Line | AUC [1] | IC50 [1] | AUC [2] | IC50 [2] | AUC [3] | IC50 [3]
MKN1 (stomach, adherent) | 0.918 | > 8000 nM | 0.719 | 1380 nM | 0.647 | 655 nM
KOSC-2 (head and neck, adherent) | 0.985 | > 8000 nM | 0.528 | 383 nM | 0.746 | 1320 nM
RERF-GC-1B (stomach, adherent) | 0.978 | > 8000 nM | 0.878 | > 5120 nM | 0.866 | > 4000 nM
HCC1806 (breast, adherent) | 0.981 | > 8000 nM | 0.598 | 580 nM | 0.931 | > 4000 nM
Hs940-T (melanoma, adherent) | 0.605 | 1040 nM | 0.76 | 2170 nM | 0.899 | > 4000 nM
BEN (non-small cell lung carcinoma, adherent) | 0.862 | > 8000 nM | 0.659 | 945 nM | 0.922 | > 4000 nM
NCI-H1915 (large cell lung carcinoma, adherent) | 0.943 | > 8000 nM | 0.521 | 366 nM | 0.964 | > 4000 nM
MFE-319 (endometrium, adherent) | 0.896 | > 8000 nM | 0.922 | > 5120 nM | 0.864 | 3310 nM
PL18 (pancreas, adherent) | 0.972 | > 8000 nM | 0.723 | 1370 nM | 0.987 | > 4000 nM
CAMA-1 (breast, adherent) | 0.984 | > 8000 nM | 0.734 | 1800 nM | 0.932 | > 4000 nM
IM-95 (stomach, adherent) | 0.899 | > 8000 nM | 0.549 | 438 nM | 0.873 | > 4000 nM
BHY (head and neck, adherent) | 0.97 | > 8000 nM | 0.538 | 406 nM | 0.783 | 1690 nM
SW837 (large intestine, adherent) | 0.974 | > 8000 nM | 0.41 | 167 nM | 0.898 | > 4000 nM
SK-MEL-28 (melanoma, adherent) | 0.984 | > 8000 nM | 0.753 | 1680 nM | 0.762 | 1400 nM
SNU-175 (large intestine, suspension) | – | – | 0.436 | 216 nM | – | –
GAMG (glioma, adherent) | 0.793 | 3860 nM | 0.459 | 247 nM | 0.658 | 703 nM
KYSE-270 (oesophagus, adherent) | 0.936 | > 8000 nM | 0.74 | 1370 nM | 0.849 | 2360 nM
RD (rhabdomyosarcoma, adherent) | 0.885 | > 8000 nM | 0.608 | 655 nM | 0.728 | 1190 nM
